# Laboratory results published in the supplement of paper PMC10369915.
# The list shows a part of the results. Cut-off read from the data, not from the text of the source: active = 3.2 or more and inactive = the rest. Only a few entries rise above the background.
# B1: ADM_Y52 (peptide)
# chain: RMSSSYPTGLA
# B2: ADA_Y308 (peptide)
# chain: TLDTDYQMTKR
# B3: ADA_Y308_L304R (peptide)
# chain: TRDTDYQMTKR
# B4: ADGRL4_Y302 (peptide)
# chain: VAFVYYKSIGP
# B5: AFG3L2_Y614_YF (peptide)
# chain: LPKEQYLFTKE
# B6: ADD2_Y31_D28N (peptide)
# chain: EDNPEYMRLRN
# B7: ADPRS_Y75_T79P_YF (peptide)
# chain: TEALFYTDDPA
# B8: AGXT_Y231_R233L (peptide)
# chain: AKKKMYSLKTK
# B9: ADAMTS9_Y100_S96T (peptide)
# chain: STQAHYRLSAF
# B10: ADGRG7_Y760_R756H (peptide)
# chain: LHVKMYNFLRS
# B11: ADAMTS18_Y765_L769I (peptide)
# chain: KANEYYPVVII
# B12: AGXT_Y297_A295T (peptide)
# chain: REATAYLHGRL
# B13: ADGRE1_Y534 (peptide)
# chain: SDPIIYTLENI
# B14: ADGRA2_Y377_T375K (peptide)
# chain: AGIKAYQSCLQ
# B15: ADGRD1_Y183_V184I (peptide)
# chain: EGLKVYINGTL
# B16: ADD2_Y440 (peptide)
# chain: NTPNTYLRVNV
# B17: ADAMTS9_Y100 (peptide)
# chain: SSQAHYRLSAF
# B18: ADGRG2_Y285_H290Q (peptide)
# chain: AEPPDYSPVTQ
# B19: ADGRG2_Y285 (peptide)
# chain: AEPPDYSPVTH
# B20: ADAMTS18_Y764_L769I (peptide)
# chain: HKANEYYPVVI
# B21: AGXT_Y231_R233H (peptide)
# chain: AKKKMYSHKTK
# B22: ADRB2_Y219 (peptide)
# chain: IMVFVYSRVFQ
# B23: ADGRL4_Y301_YF (peptide)
# chain: AVAFVYFKSIG
# B24: ADAR_Y587 (peptide)
# chain: EESSHYSTEKE
# B25: ADD2_Y31 (peptide)
# chain: EDDPEYMRLRN
# B26: ADAM12_Y895 (peptide)
# chain: RPAPQYPHQVP
# B27: AGXT_Y194_M195R (peptide)
# chain: GGTPLYRDRQG
# B28: ADGRD1_Y85_Y89D (peptide)
# chain: GVTLLYYGRDN
# B29: ADSL_Y432 (peptide)
# chain: IQVDAYFSPIH
# B30: ADSL_Y432_D430N (peptide)
# chain: IQVNAYFSPIH
# B31: ADA2_Y337 (peptide)
# chain: HSLHDYKEALM
# B32: ADAMTSL2_Y594_R593C (peptide)
# chain: AMCVCYDGVEV
# B33: ADRB2_Y219_S220C (peptide)
# chain: IMVFVYCRVFQ
# B34: ADGRL4_Y302_YF (peptide)
# chain: VAFVFYKSIGP
# B35: ADAMTS18_Y764_L769I_YF (peptide)
# chain: HKANEYFPVVI
# B36: ADAMTS18_Y764_YF (peptide)
# chain: HKANEYFPVVL
# B37: ADAMTS16_Y1211 (peptide)
# chain: CSHKFYGKQCC
# Biological target: SHP2 C-SH2 domain E139D
# Assay: enrichment score (SH2-bound / input frequency) (ratio); bacterial display of known human phosphotyrosine sites (pTyr-Var adds point mutants) read by sequencing; higher = stronger binding; tyrosines were phosphorylated by kinases first
# Settings: peptide library: pTyr-Var
# 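Note: displayed peptides selected on beads carrying the immobilized SH2 domain, with library peptides lacking any tyrosine serving as negative controls.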
row,Binder,enrichment score
1,B1,inactive: 0.597
2,B2,inactive: 0.743
3,B3,inactive: 0.525
4,B4,inactive: 0.763
5,B5,inactive: 1.11
6,B6,inactive: 0.561
7,B7,inactive: 0.9
8,B8,inactive: 2.1
9,B9,inactive: 0.727
10,B10,inactive: 0.91
11,B11,inactive: 0.609
12,B12,inactive: 0.595
13,B13,inactive: 0.815
14,B14,inactive: 0.714
15,B15,inactive: 0.871
16,B16,inactive: 0.858
17,B17,inactive: 0.872
18,B18,inactive: 0.705
19,B19,inactive: 0.539

row,Binder,enrichment score
1,B20,inactive: 0.915
2,B21,inactive: 2.81
3,B22,inactive: 1.77
4,B23,inactive: 1.61
5,B24,inactive: 0.441
6,B25,inactive: 0.706
7,B26,inactive: 0.791
8,B27,inactive: 0.587
9,B28,inactive: 1.91
10,B29,inactive: 1.28
11,B30,inactive: 1.78
12,B31,inactive: 1.1
13,B32,inactive: 1.2
14,B33,inactive: 1.67
15,B34,inactive: 0.797
16,B35,inactive: 0.971
17,B36,inactive: 1.38
18,B37,inactive: 1.47

# Biological target: SHP2 C-SH2 domain wild-type
# Assay: as above
# Settings: peptide library: pTyr-Var
row,Binder,enrichment score
1,B1,inactive: 0.5
2,B2,inactive: 0.637
3,B3,inactive: 0.608
4,B4,inactive: 0.962
5,B5,inactive: 0.84
6,B6,inactive: 0.512
7,B7,inactive: 1.36
8,B8,inactive: 1.61
9,B9,inactive: 0.672
10,B10,inactive: 1.38
11,B11,inactive: 0.929
12,B12,inactive: 0.526
13,B13,inactive: 0.985
14,B14,inactive: 0.81
15,B15,inactive: 1.41
16,B16,inactive: 1.09
17,B17,inactive: 0.838
18,B18,inactive: 0.523
19,B19,inactive: 0.552

row,Binder,enrichment score
1,B20,inactive: 0.746
2,B21,inactive: 1.66
3,B22,inactive: 1.43
4,B23,inactive: 1.56
5,B24,inactive: 0.392
6,B25,inactive: 0.437
7,B26,inactive: 0.484
8,B27,inactive: 0.562
9,B28,inactive: 1.95
10,B29,inactive: 1.24
11,B30,inactive: 2.14
12,B31,inactive: 1.23
13,B32,inactive: 1.24
14,B33,inactive: 1.64
15,B34,inactive: 0.967
16,B35,inactive: 0.855
17,B36,inactive: 0.797
18,B37,inactive: 1.31

# Biological target: SHP2 N-SH2 domain L43F
# Assay: as above
# Settings: peptide library: pTyr-Var
row,Binder,enrichment score
1,B1,inactive: 0.473
2,B2,inactive: 0.596
3,B3,inactive: 0.526
4,B4,inactive: 0.766
5,B5,inactive: 1.15
6,B6,inactive: 0.569
7,B7,inactive: 1.41
8,B8,inactive: 2.47
9,B9,inactive: 0.752
10,B10,inactive: 1
11,B11,inactive: 0.942
12,B12,inactive: 0.655
13,B13,inactive: 0.87
14,B14,inactive: 0.907
15,B15,inactive: 0.999
16,B16,inactive: 0.922
17,B17,inactive: 0.706
18,B18,inactive: 0.579
19,B19,inactive: 0.504

row,Binder,enrichment score
1,B20,inactive: 0.576
2,B21,inactive: 2.21
3,B22,inactive: 1.46
4,B23,inactive: 1.74
5,B24,inactive: 0.424
6,B25,inactive: 0.66
7,B26,inactive: 0.638
8,B27,inactive: 0.583
9,B28,inactive: 1.83
10,B29,inactive: 1.28
11,B30,inactive: 2.06
12,B31,inactive: 1.32
13,B32,inactive: 0.942
14,B33,inactive: 1.33
15,B34,inactive: 0.842
16,B35,inactive: 0.681
17,B36,inactive: 0.932
18,B37,inactive: 1.45

# Biological target: SHP2 N-SH2 domain T42A
# Assay: as above
# Settings: peptide library: pTyr-Var
row,Binder,enrichment score
1,B1,inactive: 0.239
2,B2,inactive: 0.632
3,B3,inactive: 0.592
4,B4,inactive: 0.866
5,B5,inactive: 0.612
6,B6,inactive: 0.512
7,B7,inactive: 0.962
8,B8,inactive: 2.28
9,B9,inactive: 0.642
10,B10,inactive: 0.849
11,B11,inactive: 0.685
12,B12,inactive: 0.568
13,B13,inactive: 0.699
14,B14,inactive: 0.736
15,B15,inactive: 1.05
16,B16,inactive: 2.08
17,B17,inactive: 0.687
18,B18,inactive: 0.58
19,B19,inactive: 0.477

row,Binder,enrichment score
1,B20,inactive: 0.589
2,B21,inactive: 1.7
3,B22,inactive: 1.38
4,B23,inactive: 1.47
5,B24,inactive: 0.367
6,B25,inactive: 0.356
7,B26,inactive: 0.593
8,B27,inactive: 0.543
9,B28,inactive: 1.84
10,B29,inactive: 1.27
11,B30,inactive: 1.66
12,B31,inactive: 0.845
13,B32,inactive: 1.07
14,B33,inactive: 1.31
15,B34,inactive: 0.894
16,B35,inactive: 0.84
17,B36,inactive: 0.882
18,B37,inactive: 1.23

# Biological target: SHP2 N-SH2 domain T52S
# Assay: as above
# Settings: peptide library: pTyr-Var
row,Binder,enrichment score
1,B1,inactive: 0.433
2,B2,inactive: 0.707
3,B3,inactive: 0.392
4,B4,inactive: 0.659
5,B5,inactive: 0.684
6,B6,inactive: 0.655
7,B7,inactive: 1.07
8,B8,inactive: 2.73
9,B9,inactive: 0.796
10,B10,inactive: 1.14
11,B11,inactive: 0.807
12,B12,inactive: 0.559
13,B13,inactive: 0.864
14,B14,inactive: 0.796
15,B15,inactive: 0.567
16,B16,inactive: 1.01
17,B17,inactive: 0.614
18,B18,inactive: 0.504
19,B19,inactive: 0.649

row,Binder,enrichment score
1,B20,inactive: 0.534
2,B21,inactive: 2.36
3,B22,inactive: 1.46
4,B23,inactive: 1.6
5,B24,inactive: 0.486
6,B25,inactive: 0.553
7,B26,inactive: 0.735
8,B27,inactive: 0.67
9,B28,inactive: 2.37
10,B29,inactive: 0.973
11,B30,inactive: 1.87
12,B31,inactive: 0.834
13,B32,inactive: 0.87
14,B33,inactive: 1.72
15,B34,inactive: 0.532
16,B35,inactive: 0.802
17,B36,inactive: 0.91
18,B37,inactive: 1.14

# Biological target: SHP2 N-SH2 domain wild-type
# Assay: as above
# Settings: peptide library: pTyr-Var
row,Binder,enrichment score
1,B1,inactive: 0.832
2,B2,inactive: 0.729
3,B3,inactive: 0.874
4,B4,inactive: 0.92
5,B5,inactive: 0.664
6,B6,inactive: 0.533
7,B7,inactive: 1
8,B8,inactive: 1.7
9,B9,inactive: 0.742
10,B10,inactive: 0.855
11,B11,inactive: 0.568
12,B12,inactive: 0.895
13,B13,inactive: 0.936
14,B14,inactive: 0.73
15,B15,inactive: 1.47
16,B16,inactive: 0.92
17,B17,inactive: 0.702
18,B18,inactive: 0.54
19,B19,inactive: 0.729

row,Binder,enrichment score
1,B20,inactive: 0.626
2,B21,inactive: 1.8
3,B22,inactive: 1.48
4,B23,inactive: 1.6
5,B24,inactive: 0.372
6,B25,inactive: 0.599
7,B26,inactive: 0.774
8,B27,inactive: 0.681
9,B28,inactive: 1.61
10,B29,inactive: 1.11
11,B30,inactive: 2.25
12,B31,inactive: 0.928
13,B32,inactive: 1.32
14,B33,inactive: 1.49
15,B34,inactive: 1.09
16,B35,inactive: 0.928
17,B36,inactive: 0.796
18,B37,inactive: 1.45
